The supplement of paper PMC12355420
Structures can show the parent of a compound that is named as a salt. This is one part of the list. Rule as the data show it: active = 0.5 or less and inactive = the rest. Most values come without repeats; read them as rough.

Legend:
Conditions in all cases: 50 µM; 24 h
[1] = tested on: HeLa VPS33A reporter cells; experiment: relative cell viability (CellMask signal) vs DMSO (fraction of DMSO); higher = less cytotoxic;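 also: primary screen of an FDA-approved drug library in HeLa reporter cells in 96-well format, CellMask signal normalized to DMSO-treated wells set as 1, under 0.5 deemed highly cytotoxic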
[2] = tested on: HeLa VPS33A R498W KI + HA-SDC1-FLAG; experiment: relative GAG core protein HA-SDC1 amount per cell number vs DMSO (fraction of DMSO); higher = more SDC1 (GAG core protein);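 also: HA-SDC1 level read out by In-Cell Western staining with an anti-HA antibody against the N-terminal tag, screening FDA-approved library drugs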
[3] = tested on: HeLa VPS33A KO + NLuc-VPS33A R498W; experiment: relative mutant VPS33A R498W amount (NanoLuc luminescence) vs DMSO (fraction of DMSO); HeLa model of a glycosaminoglycan (GAG) storage disease; KI is knock-in and KO knock-out; SDC1 is syndecan 1; higher = higher mutant VPS33A level;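 also: screen of an FDA-approved drug library, NanoLuc luminescence read after lysing the treated cells, taken as a measure of mutant VPS33A protein stability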

SMILES	relative cell viability [1]	relative GAG core protein HA-SDC1 amount per cell number [2]	relative mutant VPS33A R498W amount [3]
Cc1ccc(-n2[nH]c(C)c(N=Nc3cccc(-c4cccc(C(=O)O)c4)c3O)c2=O)cc1C [Eltrombopag]	0.842	active: 0.244	0.522
O=C(O)[C@H]1OC(O)[C@H](O)[C@@H](O)[C@@H]1O (mixture of isomers) [glucuronate]	1.06	inactive: 0.845	1.21
OC(Cn1cncn1)(Cn1cncn1)c1ccc(F)cc1F [Fluconazole hydrate]	1.34	inactive: 0.752	0.763
O=C[C@H](O)[C@@H](O)[C@H](O)CO [Xylose]	0.94	inactive: 0.882	1.48
CCOC(=O)[C@H](C)C[C@@H](Cc1ccc(-c2ccccc2)cc1)NC(=O)CCC(=O)O [AHU-377 hemicalcium salt]	1.02	inactive: 0.746	1.37
COC(=O)/C=C/C(=O)OC [Dimethyl Fumarate]	0.96	active: 0.359	3.5
O=C(O)c1cc(O)c2c(c1)[C@H]([C@H]1c3cc(C(=O)O)cc(O)c3C(=O)c3c(O[C@@H]4O[C@H](CO)[C@@H](O)[C@H](O)[C@H]4O)cccc31)c1cccc(O[C@@H]3O[C@H](CO)[C@@H](O)[C@H](O)[C@H]3O)c1C2=O [Sennoside A]	0.939	inactive: 1.01	0.712
C(=C\c1ccccc1)/CN1CCN(C(c2ccccc2)c2ccccc2)CC1 [Cinnarizine]	1.06	inactive: 0.973	0.939
C=C1c2cccc(O)c2C(O)=C2C(=O)[C@]3(O)C(O)=C(C(N)=O)C(=O)[C@@H](N(C)C)[C@@H]3[C@@H](O)[C@H]12 [Methacycline HCl]	0.87	inactive: 0.725	0.342
CCCc1cc(=O)[nH]c(=S)[nH]1 [Propylthiouracil]	0.955	inactive: 0.941	1.63
O=C(N/N=C/c1ccc([N+](=O)[O-])o1)c1ccc(O)cc1 [Nifuroxazide]	0.876	inactive: 0.782	0.648
NCCCC[C@H](N[C@@H](CCc1ccccc1)C(=O)O)C(=O)N1CCC[C@H]1C(=O)O [Lisinopril dihydrate]	1.08	inactive: 0.964	1.25
CC(=O)Oc1ccccc1C(=O)O [Aspirin (Acetylsalicylic acid)]	1.05	inactive: 1.04	1.09
CCCCOc1ccc(CC(=O)NO)cc1 [Bufexamac]	1.13	inactive: 0.887	0.741
CN(C)CCC=C1c2ccccc2CCc2ccccc21 [Amitriptyline HCl]	0.761	active: 0.317	0.834
[Cl-].[Cs+] [Cesium chloride]	1	inactive: 1.63	1.32
O=C(/C=C/c1ccc(O)c(O)c1)O[C@@H]1C[C@](O)(C(=O)O)C[C@@H](O)[C@H]1O [Chlorogenic acid]	1.03	inactive: 0.981	1.38
COCCCOc1ccnc(C[S+]([O-])c2nc3ccccc3[nH]2)c1C (stereo unspecified) [Rabeprazole sodium]	1.01	inactive: 0.875	1.25
OCC(O)CN1CCN(c2ccccc2)CC1 (stereo unspecified) [Dropropizine]	1.01	inactive: 0.794	1.25

SMILES	relative cell viability [1]	relative GAG core protein HA-SDC1 amount per cell number [2]	relative mutant VPS33A R498W amount [3]
CCCN(CCC)S(=O)(=O)c1ccc(C(=O)O)cc1 [Probenecid]	0.977	inactive: 1.02	1.4
COc1ccc(Cl)cc1C(=O)NCCc1ccc(S(=O)(=O)NC(=O)NC2CCCCC2)cc1 [Glibenclamide]	1.2	inactive: 0.621	0.549
CCC(=O)OCC(=O)[C@@]1(OC(=O)CC)[C@@H](C)C[C@H]2[C@@H]3CCC4=CC(=O)C=C[C@]4(C)[C@@]3(F)[C@@H](O)C[C@@]21C [Betamethasone Dipropionate]	1.23	inactive: 0.889	0.425
C[C@H](Cn1cnc2c(N)ncnc21)OCP(=O)(O)O [Tenofovir]	0.921	inactive: 1.32	1.47
O=[N+]([O-])c1ccc(O)cc1 [4-Nitrophenol]	0.966	inactive: 0.887	1.06
O=C(O)C1=C(CSc2nnnn2CS(=O)(=O)O)CS[C@@H]2[C@H](NC(=O)[C@H](O)c3ccccc3)C(=O)N12 [Cefonicid (sodium salt)]	0.99	inactive: 0.849	1.48
COc1ccc([C@]2(C#N)CC[C@@H](C(=O)O)CC2)cc1OC1CCCC1 [Cilomilast]	1.03	inactive: 1.05	0.889
CCOC(=O)c1c(C)n(C)c2ccc(O)cc12 [Mecarbinate]	0.928	inactive: 0.985	1.41
C[C@@H]1C[C@H]2[C@@H]3CCC4=CC(=O)C=C[C@]4(C)[C@@]3(Cl)[C@@H](O)C[C@]2(C)[C@@]1(OC(=O)c1ccco1)C(=O)CCl [Mometasone furoate]	0.886	active: 0.473	1.89
CCC[S+]([O-])c1ccc2[nH]c(NC(=O)OC)nc2c1 (stereo unspecified) [Albendazole Oxide]	0.637	active: 0.293	0.894
C[N+]1(C)[C@@H]2C[C@@H](OC(=O)C(O)(c3cccs3)c3cccs3)C[C@H]1[C@@H]1O[C@@H]12 [Tiotropium Bromide]	1.06	inactive: 1.38	1.3
CN1[C@@H](CC(=O)c2ccccc2)CCC[C@H]1C[C@H](O)c1ccccc1 [(-)-Lobeline hydrochloride]	1.13	inactive: 0.711	1.08
O=C(O)CCCCCCCC(=O)O [Azelaic Acid]	1.01	inactive: 0.917	1.36
CC#CCn1c(N2CCC[C@@H](N)C2)nc2c1c(=O)n(Cc1nc(C)c3ccccc3n1)c(=O)n2C [Linagliptin (BI-1356)]	0.91	inactive: 0.926	0.774
COC(=O)CCc1ccc(OCC(O)CNC(C)C)cc1 (stereo unspecified) [Esmolol HCl]	0.843	inactive: 1.08	1.39
Nc1nc2c(ncn2COCCO)c(=O)[nH]1 [Acyclovir]	1.38	inactive: 0.781	0.892
NC(=O)Cc1cccc(C(=O)c2ccccc2)c1N [Nepafenac]	1.16	inactive: 1.14	1.25
O=c1ncn2nc(Sc3ccc(F)cc3F)ccc2c1-c1c(Cl)cccc1Cl	0.947	active: 0.456	0.231
FC(F)(F)c1ccc(CNc2ccc(Cc3c[nH]c4ncc(Cl)cc34)cn2)cn1 [Pexidartinib (PLX3397)]	1.15	inactive: 1.11	0.635

SMILES	relative cell viability [1]	relative GAG core protein HA-SDC1 amount per cell number [2]	relative mutant VPS33A R498W amount [3]
Nc1nnc(-c2cccc(Cl)c2Cl)c(N)n1 [Lamotrigine]	1.04	inactive: 0.873	1.21
CCN1CCCC1CNC(=O)c1cc(S(N)(=O)=O)ccc1OC (racemic) [(RS)-(±)-Sulpiride]	1.17	inactive: 0.813	1.33
CN(CCOc1ccc(CC2SC(=O)NC2=O)cc1)c1ccccn1 (stereo unspecified) [Rosiglitazone maleate]	0.851	inactive: 0.908	0.794
Cc1cc(NS(=O)(=O)c2ccc(N)cc2)no1 [Sulfamethoxazole]	1.13	inactive: 0.822	1.21
CN1C(C(=O)Nc2ccccn2)=C(O)c2sccc2S1(=O)=O [Tenoxicam]	1.14	inactive: 0.671	1.23
CCOC(=O)N[C@@H]1CC[C@@H]2[C@@H](C1)C[C@H]1C(=O)O[C@H](C)[C@H]1[C@H]2/C=C/c1ccc(-c2cccc(F)c2)cn1 [Vorapaxar]	1.3	inactive: 0.847	0.57
Oc1ccc(C2CNCCc3c2cc(O)c(O)c3Cl)cc1 (stereo unspecified) [Fenoldopam]	0.948	inactive: 0.856	1.35
C[C@H](O)[C@H](O)[C@H]1CNc2nc(N)[nH]c(=O)c2N1 [tetrahydro-L-Biopterin (hydrochloride)]	0.948	inactive: 0.971	1.82
OC[C@H]1O[C@@H](c2ccc(Cl)c(Cc3ccc(O[C@H]4CCOC4)cc3)c2)[C@H](O)[C@@H](O)[C@@H]1O	0.97	inactive: 1.23	1.28
NCCCC[C@@H]1NC(=O)[C@@H](Cc2ccc(O)cc2)NC(=O)[C@H](CC(=O)O)NC(=O)CNC(=O)[C@H](CCCN=C(N)N)NC1=O [Cyclo(RGDyK)]	1.13	inactive: 0.804	1.02
NCCCNCCCCNCCCN [Spermine tetrahydrochloride]	1.06	inactive: 1.09	1.13
CC(O)Cn1cnc2c1c(=O)n(C)c(=O)n2C (stereo unspecified) [Proxyphylline]	1.04	inactive: 0.871	0.973
CCCCCCCCCCCCCCCCCCCCCCO [Docosanol (Abreua)]	1.13	inactive: 1.41	0.755
CNCc1ccc(-c2[nH]c3cc(F)cc4c3c2CCNC4=O)cc1	0.558	active: 0.428	6.08
N[C@@H](CSCCCO)C(=O)O [Fudosteine]	0.931	inactive: 1.18	0.991
CC(C)C(=O)OCC(=O)[C@@]12O[C@H](C3CCCCC3)O[C@@H]1C[C@H]1[C@@H]3CCC4=CC(=O)C=C[C@]4(C)[C@H]3[C@@H](O)C[C@@]12C [Ciclesonide]	0.945	inactive: 0.62	0.534
COc1ccc(-c2ccc3cc(C(=O)O)ccc3c2)cc1C12CC3CC(CC(C3)C1)C2 [Adapalene]	1.24	inactive: 1.07	1.08
O=c1c(-c2ccc(O)cc2)coc2cc(O)cc(O)c12 [Genistein]	1.06	inactive: 0.797	1.05
N=C(N)NC(=O)c1nc(Cl)c(N)nc1N [Amiloride HCl]	1.2	inactive: 0.622	0.876
